This is one part of the list. The energies were worked out here from pooled read counts, against the library average; single values are noisy.

This assay deals with T1, Pho4 (S. cerevisiae) (UniProt P07270).
T1 sequence: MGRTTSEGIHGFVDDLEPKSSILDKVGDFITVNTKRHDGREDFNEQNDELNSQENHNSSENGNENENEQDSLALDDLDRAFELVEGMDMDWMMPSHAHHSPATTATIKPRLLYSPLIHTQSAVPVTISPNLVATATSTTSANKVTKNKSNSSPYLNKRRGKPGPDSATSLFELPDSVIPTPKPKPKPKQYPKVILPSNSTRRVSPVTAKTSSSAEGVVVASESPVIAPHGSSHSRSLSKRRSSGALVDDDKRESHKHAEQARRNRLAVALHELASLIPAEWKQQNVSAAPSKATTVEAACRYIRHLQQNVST
As to the kind of experiment: relative binding free energy (BET-seq); higher = weaker binding. Particulars: reference: library average.
For the sequence GTGGACACGTGCAGGC, the “relative binding free energy” value came to 0.12 kcal/mol. In the case of CCATGCACGTGTGGTG, the “relative binding free energy” value is -0.03 kcal/mol. The same measure for TAGGGCACGTGGATCA: -0.09 kcal/mol; for ATTGACACGTGGTCGA: -0.1 kcal/mol. The same measure for GTAGTCACGTGGCTGG: 0.14 kcal/mol; for ATCATCACGTGTTGAT: 0.27 kcal/mol; for CTTGGCACGTGTTTGG: -0.26 kcal/mol. The same measure for CGGATCACGTGGTGGA: 0.16 kcal/mol; for AGTTTCACGTGCTTTA: 0.18 kcal/mol. Turning to ATTTGCACGTGAAAAT, the “relative binding free energy” value is 0.19 kcal/mol.

Consider TTCCACACGTGGGGTT, for which the “relative binding free energy” value was -0.06 kcal/mol. The same measure for GTTATCACGTGGTGAC: 0.11 kcal/mol.

Consider GTCTGCACGTGTCTGT, for which the “relative binding free energy” value was found to be 0.03 kcal/mol. The value for GGGTGCACGTGGGGCC was -0.16 kcal/mol. The same measure for TACTGCACGTGCTGGT: -0.12 kcal/mol; for TTAGACACGTGTTGTC: 0.08 kcal/mol. The value for TGTCACACGTGTGATG was 0.19 kcal/mol; that for ATGTGCACGTGGGAAT was -0.09 kcal/mol; that for AGGTGCACGTGATGTA was 0.05 kcal/mol. Consider ACTTGCACGTGGGGAT, for which the “relative binding free energy” value is -0.23 kcal/mol. The value for TGTTACACGTGATGGG was 0.29 kcal/mol; that for GTGTACACGTGAGAGA was 0.14 kcal/mol; that for TAGTTCACGTGTGTTG was 0.4 kcal/mol. The same measure for GGGCGCACGTGCTTGG: -0.13 kcal/mol.

Consider TGATGCACGTGGGGTA, for which the “relative binding free energy” value was -0.04 kcal/mol. In the case of TCGGACACGTGGTTGA, the “relative binding free energy” value was -0.03 kcal/mol.

TGTTTCACGTGTGCGG: the “relative binding free energy” value was determined as 0.3 kcal/mol.

With CAGTTCACGTGTTATG, the “relative binding free energy” value was determined as 0.28 kcal/mol. The same measure for TGGGTCACGTGAGGAA: 0.35 kcal/mol. The value for TAGGGCACGTGACGGC was 0.05 kcal/mol; that for GTCGTCACGTGTAGTG was 0.15 kcal/mol; that for GGGGACACGTGAGGCA was 0.11 kcal/mol. The value for ATTTGCACGTGCCGGG was -0.08 kcal/mol; that for GGAAGCACGTGTTGAT was -0.07 kcal/mol; that for TGTCGCACGTGGGGTC was -0.26 kcal/mol. For TTAAGCACGTGAGATG, the “relative binding free energy” value was 0.26 kcal/mol. The same measure for TTTTTCACGTGAACTT: 0.39 kcal/mol. For GATCACACGTGGTGGT, the “relative binding free energy” value was found to be 0.16 kcal/mol. Consider TAATGCACGTGTATTG, for which the “relative binding free energy” value is -0.06 kcal/mol. The value for TTTGGCACGTGCTTGT was -0.16 kcal/mol. In the case of CTAGTCACGTGTGTAG, the “relative binding free energy” value stood at 0.03 kcal/mol. The value for TAAGTCACGTGTGTAA was 0.12 kcal/mol; that for ATAATCACGTGGTCTT was -0.01 kcal/mol.

On to GGGGACACGTGTTTGT, for which the “relative binding free energy” value was found to be 0.18 kcal/mol.

For the sequence GTCGTCACGTGGATTA, the “relative binding free energy” value stood at 0.22 kcal/mol.

In the case of GGTTGCACGTGGCGTC, the “relative binding free energy” value is -0.14 kcal/mol. The same measure for AATGACACGTGGTATT: -0.19 kcal/mol. The same measure for AGTGGCACGTGCTGTG: -0.23 kcal/mol; for ATTTTCACGTGACTTA: 0.17 kcal/mol. For TGTGTCACGTGATGAC, the “relative binding free energy” value is 0.23 kcal/mol. The value for TTGCTCACGTGGTTTC was 0.28 kcal/mol. Turning to TTTTGCACGTGGAGGC, the “relative binding free energy” value is -0.08 kcal/mol. The value for AATTTCACGTGGTGCG was 0.16 kcal/mol; that for TGTTTCACGTGGTCAT was 0.21 kcal/mol. The same measure for TCAGGCACGTGGTGAT: -0.02 kcal/mol. In the case of ATAGGCACGTGTGCTT, the “relative binding free energy” value is -0.09 kcal/mol. The same measure for TTTGTCACGTGCAGCG: 0.2 kcal/mol; for TTTTGCACGTGATAGA: 0.1 kcal/mol; for ATTGGCACGTGATACT: 0.18 kcal/mol. The same measure for GTTTCCACGTGTTATT: 0.16 kcal/mol; for CGGGGCACGTGGTGAT: -0.16 kcal/mol. Turning to TCTGTCACGTGACAGT, the “relative binding free energy” value came to 0.31 kcal/mol. Consider GGGATCACGTGGGCAG, for which the “relative binding free energy” value was found to be 0.07 kcal/mol.

Source of the values: the BET-seq Pho4 binding data (Le et al. 2018).
